These results are taken from ChEMBL document CHEMBL4888484, “Replenishing the malaria drug discovery pipeline: Screening and hit evaluation of the MMV Hit Generation Library 1 (HGL1) against asexual blood stage Plasmodium falciparum ,using a nano luciferase reporter read-out” (2022).

Out of some 150,000 compounds screened, about 540 (0.36%) showed an effect of 50% or more. The list shows a part of the results.

The experiment deals with Plasmodium falciparum. Description: Primary screen in NF54 nanoGlo assay, in single point, at 2uM, 72h; a lower Z score goes with more inhibition. The format is functional, Erythrocyte. The conditions noted are these: timepoint 72 hour.
For `O=C1NC2(CCCCCCC2)C(=O)N1Cc1nc(-c2ccco2)no1`, the “% Inhibition” value was -9% and the Z score is on record as 1.5.

Take `COc1ccc(CCNC(=O)CN2CCn3nc(C#N)cc3C2)cc1`: the “% Inhibition” value is -2% and the Z score is 0.41.

With `O=C(Cn1c(=O)n(Cc2ccc3c(c2)OCO3)c(=O)c2sccc21)NCc1ccccc1`, the “% Inhibition” value is -15% and the Z score worked out at 2.85.

Consider `O=C(NCCCc1ccco1)N1CCCC[C@@H]1CN1CCCC1`, for which the “% Inhibition” value is -11% and the Z score worked out at 1.78.

Take `COc1ccc(N2C(=O)N(Cc3cccc(F)c3)S(=O)(=O)c3cccnc32)cc1`: the “% Inhibition” value was -4% and the Z score is reported as 0.65.

Consider `COC1CN(c2nnc(C3CC3)s2)C1`, for which the “% Inhibition” value is given as -16% and the Z score stood at 1.87.

For `Nc1cc(Cl)ccc1OCC(F)(F)F`, the “% Inhibition” value is listed as -2% and the Z score stood at 0.42.

As to `O=C(CC1CCCCC1)Nc1ccccn1`, the “% Inhibition” value worked out at 4% and the Z score is recorded as -0.41.

On to `COCCCNC(=O)c1snnc1C(C)(C)C`, for which the “% Inhibition” value was -2% and the Z score worked out at 0.21.

Consider `OCCC1CCCC1NCc1ccc(Br)o1` (configuration not stated), for which the “% Inhibition” value is on record as -8% and the Z score amounted to 0.87.

Turning to `Cn1c(C(=O)NC2CCCCC2)cc2c1CCN(Cc1ccccc1)C2`, the “% Inhibition” value was -1% and the Z score was found to be 0.09.

For the compound `COc1ccc(N2CC(C(=O)N3C4C=CCC3CC4)CC2=O)cc1` (configuration not stated), the “% Inhibition” value is reported as -5% and the Z score was found to be 0.62.

Turning to `CCOC(=O)C1(CNC(=O)N2CCO[C@H](C(F)F)C2)CCCC1`, the “% Inhibition” value turned out to be 3% and the Z score is recorded as -0.35.

With `Cc1c(C)[n+]([O-])c([C@@H](c2ccc3ncccc3c2)C2C(=O)OC(C)(C)OC2=O)n1Cc1ccccc1`, the “% Inhibition” value is listed as 1% and the Z score is recorded as -0.18.

With `Cn1nccc1NC(=O)NC1CN(c2ccc(C(F)(F)F)cc2)C1`, the “% Inhibition” value is given as -7% and the Z score is 1.27.

Turning to `C=CCN(CC=C)S(=O)(=O)c1c(F)cccc1F`, the “% Inhibition” value is recorded as -15% and the Z score is on record as 1.78.

Turning to `O=C1NCCCC[C@@H]1N1CCc2ccccc2C1`, the “% Inhibition” value was -10% and the Z score is recorded as 1.27.

For `CS(=O)(=O)NCc1ccc(-c2ccco2)nc1`, the “% Inhibition” value is listed as -6% and the Z score was 0.63.

As for `Cc1csc(CN(C)C(=O)c2cc[nH]c2C)n1`, the “% Inhibition” value is on record as -9% and the Z score is on record as 1.81.

Regarding `CCOc1ccc(N2CCC[C@H](NC(=O)C(C)C)C2)nn1`, the “% Inhibition” value is reported as -13% and the Z score was found to be 1.37.

Take `Cc1ccc(Cc2ccccc2C(=O)N[C@H]2CS(=O)(=O)C[C@@H]2O)cc1F`: the “% Inhibition” value is -7% and the Z score worked out at 0.73.

For the compound `CCOC(=O)[C@@H](NCc1nc2c(F)cccc2n1CC)C1CC1`, the “% Inhibition” value was -7% and the Z score worked out at 1.06.

Turning to `O=C(Nc1ccccc1)OC1CCCC(NC(=O)C2CC(=O)N(c3ccc(F)cc3)C2)C1` (configuration not stated), the “% Inhibition” value is reported as -3% and the Z score is 0.38.

As for `CC(=O)c1c(C)cccc1NS(=O)(=O)CCCC(F)(F)F`, the “% Inhibition” value is on record as -18% and the Z score came out at 2.08.

With `Cc1occc1C(=O)NCC(F)(F)C(F)F`, the “% Inhibition” value is recorded as -4% and the Z score stood at 0.7.

With `CCn1c(CN[C@H](c2ccccc2)c2cccs2)nc2cc(S(=O)(=O)N3CCCCC3)ccc21`, the “% Inhibition” value came to 14% and the Z score is listed as -1.61.

In the case of `C[C@H](NC(=O)CN1CCCC1=O)c1ncc(-c2ccccc2)o1`, the “% Inhibition” value is -13% and the Z score is 1.66.

Take `CN([C@@]1(C#N)CCOC1)S(=O)(=O)c1ccccc1Br`: the “% Inhibition” value is -13% and the Z score is recorded as 2.34.

For the compound `Cc1ccc(-c2csc(N3CCC(n4cncn4)CC3)n2)cc1`, the “% Inhibition” value is listed as -19% and the Z score turned out to be 2.92.

As for `Cc1cc(Cl)cc(C)c1NC(=O)N(CCO)Cc1nccn1C`, the “% Inhibition” value is reported as -13% and the Z score is recorded as 1.81.

In the case of `c1ccc(-c2ncc(CN3CC(c4cccnc4)C3)s2)cc1`, the “% Inhibition” value was -14% and the Z score worked out at 1.29.

For the compound `CC(C)[C@H](NC(=O)NCCc1ncnn1C)c1ccccc1Cl`, the “% Inhibition” value amounted to 35% and the Z score is given as -4.75.

As to `O=C(NCC1CCN([C@H]2CCOC2)CC1)c1cccc(Br)c1`, the “% Inhibition” value is -5% and the Z score is 1.08.

In the case of `CC1(C)CS(=O)(=O)N(c2cccc(C(=O)N3CCc4ccccc4C3)c2)C1=O`, the “% Inhibition” value is given as -2% and the Z score came to 0.28.

Consider `CC(C1CC1)N(C)C(=O)C1COc2ccccc2C1` (configuration not stated), for which the “% Inhibition” value is -3% and the Z score is 0.26.

Take `Cc1ccc(-n2nnnc2N2CCOC3(CCCC3)C2)cc1`: the “% Inhibition” value was -3% and the Z score is 0.39.

Take `Cc1cnc(CNC(=O)NC[C@H](C)N(C)Cc2ccccc2)s1`: the “% Inhibition” value is listed as 6% and the Z score is given as -0.59.

`Cc1nc(C)c(F)c(NCCCc2cnoc2)n1`: the “% Inhibition” value was 2% and the Z score was -0.29.

As for `NC(=O)C1CCCN(Cc2ccc(NCC3CCC=CO3)cc2)C1` (configuration not stated), the “% Inhibition” value was 3% and the Z score is on record as -0.56.

Regarding `Fc1ccc(CN2CCC(OCc3cccnc3)CC2)c(F)c1Cl`, the “% Inhibition” value came out at 0% and the Z score was determined as 0.

Take `O=C(c1cc2n(n1)CCCO2)N1CCN(Cc2ccncc2)CC1`: the “% Inhibition” value is listed as -13% and the Z score came to 2.08.

On to `CCOC(=O)c1cnccc1N1CCC[C@H](N(C)C)C1`, for which the “% Inhibition” value is on record as -13% and the Z score was 1.39.

As for `COc1c(Cl)cc(Cl)cc1CNC(C)C`, the “% Inhibition” value stood at 35% and the Z score is -1.04.

For the compound `CC[C@]1(O)CCCN(C(=O)c2n[nH]nc2C)C1`, the “% Inhibition” value is reported as -2% and the Z score came out at 0.37.

With `CC[C@@H](C#N)NC(=O)c1ncccc1O`, the “% Inhibition” value is on record as -20% and the Z score is on record as 3.88.

On to `O=C(Nc1cc(C(=O)N2CCN(CCO)CC2)c2c(c1)ncn2C1CCCC1)c1ccccc1`, for which the “% Inhibition” value was -4% and the Z score is 0.42.

Turning to `COc1ccc(OC)c([C@@H]2CCCN2Cc2ccn(-c3ccccc3)n2)c1`, the “% Inhibition” value stood at 3% and the Z score is recorded as -0.34.

In the case of `CCc1nnsc1C(=O)N[C@@H](C)c1cc(C)sc1C`, the “% Inhibition” value is recorded as -2% and the Z score is given as 0.45.

Turning to `CC1CCN(C(=O)CNC(=O)c2ccco2)CC1`, the “% Inhibition” value was determined as 1% and the Z score is listed as -0.17.

With `Cc1ccc(-n2ncc3c(N)c4c(nc32)CCCC4=O)cc1`, the “% Inhibition” value is on record as 12% and the Z score is -2.26.

With `COCC(=O)N1CC[C@@H]2N(C(=O)c3n[nH]c4c3CCC4)CCC[C@@]2(CO)C1`, the “% Inhibition” value is on record as -7% and the Z score is listed as 1.12.

Regarding `C/C(=C\c1ccccc1)CN1CCCn2nc(CN3CCC(F)CC3)cc2C1`, the “% Inhibition” value worked out at 1% and the Z score is recorded as -0.09.

Take `O=S1(=O)NC[C@H](O)CN(Cc2cccs2)C[C@@]2(COc3cc(-c4ccccc4F)ccc31)C[C@@H](O)[C@@H](O)C2`: the “% Inhibition” value is -18% and the Z score is given as 2.26.

Take `CC(C)(C)CC(=O)N1CCC(S(C)(=O)=O)CC1`: the “% Inhibition” value was -2% and the Z score turned out to be 0.42.

On to `CC1CC1C(=O)NCCC(=O)N1CCCC1c1nc(-c2cccc(C(F)(F)F)c2)c[nH]1` (configuration not stated), for which the “% Inhibition” value came out at 1% and the Z score was -0.12.

Turning to `Cc1ccc(N2C[C@@H](C(=O)Nc3ccc4c(c3)CCC4)CC2=O)cc1`, the “% Inhibition” value was determined as 1% and the Z score is -0.13.

As a reminder, the % Inhibition is the drop in the measured response relative to a control, in per cent.
